Experimental data from the supplement of paper PMC12217912.
The list shows a part of the results. The full chains were built here from the parent and the listed change. Values near 0.05 are background.

B1: TEV protease; numbered along this chain (parent)
chain: MGESLFKGPRDYNPISSSICHLTNESDGHTTSLYGIGFGPFIITNKHLFRRNNGTLVVQSLHGVFKVKDTTTLQQHLVDGRDMIIIRMPKDFPPFPQKLKFREPQREERICLVTTNFQTKSMSSMVSDTSCTFPSGDGIFWKHWIQTKDGQCGSPLVSTRDGFIVGIHSASNFTNTNNYFTSVPKNFMELLTNQEAQQWVSGWRLNADSVLWGGHKVFMVKPEEPFQPVKEATQL

Variants of: B1
Assay: raw area under fraction-flipped curve 0-4 h after induction (AUC4h, not background-subtracted), DNA-recorder readout of cleavage of the substrate (dimensionless); higher = more cleavage of the substrate by the protease variant
Details: temperature: 34 °C; time window: 0-4 h after rhamnose induction
Experimental: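 In vivo DNA recorder in E. coli TOP10(DE3) ΔrhaA at 34 °C. Each TEVp single-site mutant (parent TEVp 0) is paired with a single-site variant of the 7-mer TEVs (canonical ENLYFQ|S). The substrate sits between flexible linkers in a Bxb1-sfGFP-TEVs-SsrA fusion, so cleavage stabilises Bxb1 and speeds flipping of a recombination array, read by NGS. The value is the raw area under the fraction-flipped curve over 0-4 h after rhamnose induction (AUC4h), with ≥20 reads per time point. It is not background-subtracted; inactive controls average about 0.047.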
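Also: Bxb1 expression induced with 0.2% (w/v) L-rhamnose at OD600 near 0.5, cultures sampled hourly, flipped fraction per protease–substrate barcode pair counted by paired-end Illumina sequencing.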

Row | Variant | area with substrate ENAYFQS | area with substrate ENCYFQS | area with substrate ENDYFQS | area with substrate ENEYFQS | area with substrate ENHYFQS | area with substrate ENIYFQS | area with substrate ENKYFQS | area with substrate ENNYFQS | area with substrate ENPYFQS | area with substrate ENQYFQS | area with substrate ENRYFQS | area with substrate ENSYFQS | area with substrate ENWYFQS | area with substrate ENGYFQS | area with substrate ENMYFQS | area with substrate ENFYFQS | area with substrate ENYYFQS | area with substrate ENVYFQS | area with substrate ENTYFQS
1 | W199T | 0.0567 | 0.0601 | 0.0682 | 0.0553 | 0.0473 | 0.0641 | 0.0384 | 0.058 | 0.0626 | 0.0603 | 0.0664 | 0.0609 | 0.0661 | – | – | – | – | – | –
2 | W199K | 0.0546 | 0.0556 | 0.0583 | 0.0693 | 0.0616 | 0.0667 | 0.0451 | – | 0.0637 | 0.0664 | 0.0495 | – | – | 0.0678 | 0.0813 | – | – | – | –
3 | K221P | 0.0487 | 0.0384 | 0.065 | 0.0582 | 0.0748 | 0.102 | – | 0.0591 | – | – | – | 0.0479 | – | 0.0543 | 0.0763 | 0.0496 | 0.0639 | – | –
4 | L190V | 0.0633 | 0.0643 | 0.0469 | 0.0595 | – | 0.092 | – | 0.056 | 0.0583 | – | 0.0595 | 0.0528 | 0.0784 | – | – | 0.0716 | – | 0.059 | –
5 | L190K | 0.0554 | 0.0667 | 0.0648 | 0.0275 | 0.0614 | 0.12 | 0.058 | 0.0563 | – | 0.0639 | – | 0.0707 | 0.0603 | 0.0652 | 0.051 | – | – | – | 0.0627
6 | S201T | 0.0603 | 0.0704 | 0.0379 | – | – | 0.119 | – | 0.0537 | – | – | – | – | – | 0.0572 | 0.0986 | – | – | 0.0951 | 0.0685
7 | L205P | 0.045 | 0.0644 | 0.0593 | 0.0589 | – | – | – | 0.068 | 0.0573 | 0.0546 | 0.0463 | 0.0591 | – | 0.0573 | 0.0575 | – | – | 0.0567 | –
8 | L205C | 0.0673 | 0.0691 | 0.0615 | – | – | – | 0.0448 | – | – | 0.0692 | – | 0.0705 | – | – | – | 0.0539 | – | – | –
9 | L205Q | 0.0571 | 0.0771 | – | – | – | 0.0948 | – | – | – | – | – | – | – | – | – | – | – | – | –
10 | N206D | 0.0539 | 0.0136 | 0.0654 | 0.0623 | 0.0501 | 0.157 | 0.0592 | 0.0522 | 0.051 | 0.0332 | 0.0686 | 0.146 | 0.0464 | 0.0702 | – | 0.0645 | – | 0.0882 | 0.0687
11 | N206V | 0.0622 | 0.0571 | 0.0527 | 0.0651 | 0.0791 | – | – | – | – | 0.0547 | 0.0645 | 0.0473 | 0.0421 | – | – | – | – | – | 0.0572
12 | N206W | 0.0562 | 0.0695 | 0.0605 | 0.0729 | 0.0587 | – | 0.0719 | – | 0.0569 | 0.056 | – | – | – | 0.057 | – | 0.0625 | 0.0696 | – | –
13 | L191H | 0.0479 | – | 0.0572 | 0.0743 | 0.0315 | 0.0386 | 0.0522 | 0.0622 | 0.0654 | 0.0644 | 0.0523 | 0.0781 | – | – | – | 0.0557 | 0.0719 | 0.04 | –
14 | L191R | 0.0579 | – | 0.0451 | 0.0644 | 0.0572 | 0.0493 | 0.0635 | 0.0504 | – | 0.0674 | – | 0.0621 | 0.0229 | 0.0401 | – | 0.0652 | 0.0884 | 0.055 | –
15 | L191N | 0.0535 | 0.0521 | 0.0418 | 0.0589 | – | – | 0.049 | – | 0.0556 | – | 0.0522 | 0.0596 | 0.0482 | 0.0514 | 0.0514 | 0.0479 | – | 0.0595 | 0.059
16 | R204Y | 0.0615 | 0.0861 | 0.055 | 0.0687 | 0.0562 | 0.123 | 0.0738 | 0.0584 | 0.0702 | 0.0672 | 0.0611 | 0.0549 | 0.0659 | 0.0553 | – | 0.0505 | 0.0604 | 0.0842 | 0.05
17 | P228T | 0.0445 | 0.0639 | – | 0.0587 | – | – | 0.0606 | – | – | – | – | 0.0552 | – | – | – | 0.0602 | – | – | 0.0492
18 | F6E | – | 0.0666 | 0.0434 | – | – | 0.0694 | – | – | 0.0488 | 0.0552 | 0.0596 | 0.0658 | – | – | – | – | – | 0.0814 | 0.0633
19 | G214L | 0.0529 | – | 0.0685 | 0.0523 | – | 0.0655 | 0.0721 | – | – | 0.067 | 0.0579 | 0.0572 | – | – | – | 0.0541 | – | 0.0668 | 0.0558
20 | V210W | 0.0788 | 0.055 | 0.0524 | 0.0555 | 0.0726 | – | 0.0589 | 0.0531 | 0.0609 | 0.0493 | 0.047 | – | 0.0542 | 0.0551 | – | 0.0573 | – | – | 0.0731
21 | N193H | 0.0625 | – | 0.0639 | – | 0.0592 | – | – | 0.0695 | – | – | – | – | – | – | 0.0535 | 0.0662 | – | 0.0775 | 0.0905
22 | L211E | 0.0415 | 0.0684 | 0.0514 | 0.0553 | 0.0604 | 0.158 | 0.0682 | 0.0577 | 0.0445 | 0.0677 | 0.075 | 0.0637 | 0.0557 | 0.0786 | – | 0.0697 | 0.0745 | 0.0901 | 0.0547
23 | L211G | 0.052 | – | 0.0629 | 0.0648 | – | – | – | 0.0578 | 0.0759 | 0.0666 | 0.0471 | – | – | – | – | 0.0569 | – | – | –
24 | F218E | 0.0457 | – | 0.0663 | 0.058 | 0.0531 | – | 0.0564 | 0.0588 | 0.0596 | 0.0496 | 0.0617 | 0.0664 | – | 0.0663 | – | 0.0628 | – | 0.0615 | 0.0479
25 | F218Q | 0.0543 | – | 0.0862 | 0.0865 | 0.0638 | 0.117 | 0.0617 | 0.0617 | 0.0568 | 0.0523 | – | 0.0685 | 0.0384 | 0.0566 | 0.0685 | 0.063 | 0.0616 | – | 0.0811
26 | Q194D | 0.0551 | 0.0532 | 0.0686 | 0.0766 | – | – | 0.0408 | – | 0.0598 | 0.0505 | – | – | – | 0.0591 | – | – | 0.053 | – | 0.0634
27 | W212T | 0.0621 | – | 0.0692 | 0.0548 | – | – | – | 0.0531 | 0.0707 | 0.0573 | 0.0377 | 0.0569 | 0.0613 | – | – | 0.049 | – | – | 0.0425
28 | W212H | 0.1 | 0.068 | 0.0587 | 0.0515 | – | – | 0.0601 | 0.06 | – | 0.0566 | – | 0.0534 | – | 0.0545 | – | – | – | – | 0.0447
29 | W212I | 0.0741 | – | – | – | – | 0.122 | – | – | – | 0.0706 | 0.058 | 0.0707 | 0.0732 | 0.0806 | – | 0.0715 | – | 0.11 | 0.0631
